Patent publication US11178870B2 (priority 2017, dated 2021)

Columns and labels:
Assay type in all cases: in vivo
Puccinia recondita = test: Test Example E: Brown rust on wheat; conditions: for Test E control value (brown rust on wheat): class of control value, Table 7; for Test E control value: Brown rust on wheat; for control value, Test E (brown rust on wheat): Table 7, Test E
Plasmopara viticola = test: Test Example G: Downy mildew on vine; conditions: for Test G control value (downy mildew on vine): 250 ppm spray, investigated 7 to 10 days after inoculation; for Test G control value (downy mildew on vine) / Test G control value: 2.5 ml/pot; for Test G control value: Downy mildew on vine, 250 ppm sprayed, 7 to 10 days after inoculation; for control value, Test G (downy mildew on vine): 250 ppm sprayed (2.5 ml/pot) before inoculation, assessed 7 to 10 days after inoculation
Botrytis cinerea = test: Test Example B: Gray mold on tomato; conditions: for Test B control value (gray mold on tomato): class of control value, Table 7; for Test B control value: Gray mold on tomato; for control value, Test B (gray mold on tomato): Table 7, Test B
[1] = test system: Blumeria graminis f. sp. hordei; test: Test Example D: Powdery mildew on barley; conditions: for Test D control value (powdery mildew on barley): class of control value, Table 7; for Test D control value: Powdery mildew on barley; for control value, Test D (powdery mildew on barley): Table 7, Test D
Alternaia brassicicola = test: Test Example C: Alternaria sooty spot on cabbage; conditions: for Test C control value (Alternaria sooty spot on cabbage): class of control value, Table 7; for Test C control value: Alternaria sooty spot on cabbage; for control value, Test C (Alternaria sooty spot on cabbage): Table 7, Test C

Row | SMILES | Test E control value (Puccinia recondita) | Test G control value (Plasmopara viticola) | Test B control value (Botrytis cinerea) | Test D control value [1] | Test C control value (Alternaia brassicicola) | control value, Test E (brown rust on wheat) (Puccinia recondita) | control value, Test G (downy mildew on vine) (Plasmopara viticola) | control value, Test B (gray mold on tomato) (Botrytis cinerea) | control value, Test D (powdery mildew on barley) [1] | control value, Test C (Alternaria sooty spot on cabbage) (Alternaia brassicicola) | also measured
1 | CCn1c(-c2ccc(F)cc2F)c(-n2ncc(C)c2Cl)ccc1=O [Compound 506] | – | – | – | – | – | – | – | – | – | – | Test E control value (brown rust on wheat) (Puccinia recondita): H (H shows the control value more than 50%); Test G control value (downy mildew on vine) (Plasmopara viticola): H (H shows the control value more than 50%); Test B control value (gray mold on tomato) (Botrytis cinerea): H (H shows the control value more than 50%); Test D control value (powdery mildew on barley) [1]: H (H shows the control value more than 50%); Test C control value (Alternaria sooty spot on cabbage) (Alternaia brassicicola): H (H shows the control value more than 50%)
2 | CCn1c(-c2c(F)cc(F)cc2F)c(-n2cc(NC(C)=O)cn2)cc(Cl)c1=O [Compound 163] | L (L shows the control value of 50% or less) | H (H shows the control value more than 50%) | L (L shows the control value of 50% or less) | L (L shows the control value of 50% or less) | L (L shows the control value of 50% or less) | – | – | – | – | – | –
3 | O=c1ccc(-c2ccsc2Cl)c(-c2c(F)cccc2F)n1CC(F)F [Compound 366] | – | – | – | – | – | H (H shows the control value more than 50%) | H (H shows the control value more than 50%) | H (H shows the control value more than 50%) | H (H shows the control value more than 50%) | H (H shows the control value more than 50%) | –
4 | O=c1c(Cl)cc(-n2cc(Cl)cn2)c(-c2ccccc2F)n1CC(F)F [Compound 277] | – | – | – | – | – | H (H shows the control value more than 50%) | H (H shows the control value more than 50%) | H (H shows the control value more than 50%) | H (H shows the control value more than 50%) | H (H shows the control value more than 50%) | –
5 | CCn1c(-c2c(F)cc(OC)cc2F)c(-n2cc(F)cn2)cc(Cl)c1=O [Compound 314] | – | – | – | – | – | H (H shows the control value more than 50%) | L (L shows the control value of 50% or less) | H (H shows the control value more than 50%) | H (H shows the control value more than 50%) | H (H shows the control value more than 50%) | –
6 | CCn1c(-c2ccc(F)cc2C)c(-n2cc(C)cn2)ccc1=O [Compound 367] | – | – | – | – | – | L (L shows the control value of 50% or less) | L (L shows the control value of 50% or less) | L (L shows the control value of 50% or less) | H (H shows the control value more than 50%) | H (H shows the control value more than 50%) | –
7 | CCn1c(-c2c(F)cccc2F)c(C2OCCO2)cc(Cl)c1=O [Compound 13] | H (H shows the control value more than 50%) | L (L shows the control value of 50% or less) | H (H shows the control value more than 50%) | L (L shows the control value of 50% or less) | H (H shows the control value more than 50%) | – | – | – | – | – | –
8 | Cc1cnn(-c2cc(Br)c(=O)n(C)c2-c2ccccc2F)c1Cl [Compound 490] | – | – | – | – | – | – | – | – | – | – | Test E control value (brown rust on wheat) (Puccinia recondita): H (H shows the control value more than 50%); Test G control value (downy mildew on vine) (Plasmopara viticola): H (H shows the control value more than 50%); Test B control value (gray mold on tomato) (Botrytis cinerea): H (H shows the control value more than 50%); Test D control value (powdery mildew on barley) [1]: H (H shows the control value more than 50%); Test C control value (Alternaria sooty spot on cabbage) (Alternaia brassicicola): H (H shows the control value more than 50%)
9 | O=c1ccc(-n2cc(Cl)cn2)c(-c2ccccc2Cl)n1CC(F)F [Compound 292] | – | – | – | – | – | H (H shows the control value more than 50%) | L (L shows the control value of 50% or less) | H (H shows the control value more than 50%) | H (H shows the control value more than 50%) | H (H shows the control value more than 50%) | –
10 | CCn1c(-c2ccccc2Cl)c(-n2cnc(Cl)c2Cl)cc(Cl)c1=O [Compound 209] | – | – | – | – | – | H (H shows the control value more than 50%) | L (L shows the control value of 50% or less) | H (H shows the control value more than 50%) | H (H shows the control value more than 50%) | H (H shows the control value more than 50%) | –
11 | Cc1cnn(-c2cc(Br)c(=O)n(N)c2-c2c(F)cccc2F)c1Cl [Compound 473] | – | – | – | – | – | – | – | – | – | – | Test E control value (brown rust on wheat) (Puccinia recondita): H (H shows the control value more than 50%); Test G control value (downy mildew on vine) (Plasmopara viticola): H (H shows the control value more than 50%); Test B control value (gray mold on tomato) (Botrytis cinerea): H (H shows the control value more than 50%); Test D control value (powdery mildew on barley) [1]: L (L shows the control value of 50% or less); Test C control value (Alternaria sooty spot on cabbage) (Alternaia brassicicola): H (H shows the control value more than 50%)
12 | CCn1c(-c2ccccc2F)c(-n2cc(Cl)cn2)cc(Cl)c1=O [Compound 220] | – | – | – | – | – | H (H shows the control value more than 50%) | L (L shows the control value of 50% or less) | H (H shows the control value more than 50%) | H (H shows the control value more than 50%) | H (H shows the control value more than 50%) | –
13 | Cc1ccsc1-c1cc(Br)c(=O)n(CC(F)F)c1-c1c(F)cccc1F [Compound 446] | – | – | – | – | – | – | – | – | – | – | Test E control value (brown rust on wheat) (Puccinia recondita): H (H shows the control value more than 50%); Test G control value (downy mildew on vine) (Plasmopara viticola): L (L shows the control value of 50% or less); Test B control value (gray mold on tomato) (Botrytis cinerea): H (H shows the control value more than 50%); Test D control value (powdery mildew on barley) [1]: H (H shows the control value more than 50%); Test C control value (Alternaria sooty spot on cabbage) (Alternaia brassicicola): H (H shows the control value more than 50%)
14 | O=c1ccc(-n2cc(Cl)cn2)c(-c2ccc(F)cc2F)n1CC(F)F [Compound 211] | – | – | – | – | – | H (H shows the control value more than 50%) | L (L shows the control value of 50% or less) | L (L shows the control value of 50% or less) | H (H shows the control value more than 50%) | H (H shows the control value more than 50%) | –
15 | O=c1c(Cl)cc(-c2cccnc2Cl)c(-c2c(F)cc(F)cc2F)n1CC(F)F [Compound 68] | H (H shows the control value more than 50%) | L (L shows the control value of 50% or less) | H (H shows the control value more than 50%) | H (H shows the control value more than 50%) | H (H shows the control value more than 50%) | – | – | – | – | – | –
16 | CCn1c(-c2c(F)cc(OC)cc2F)c(-c2cnco2)cc(Cl)c1=O [Compound 37] | H (H shows the control value more than 50%) | L (L shows the control value of 50% or less) | H (H shows the control value more than 50%) | L (L shows the control value of 50% or less) | H (H shows the control value more than 50%) | – | – | – | – | – | –
17 | CCn1c(-c2c(F)cc(OC)cc2F)c(-c2ocnc2F)cc(Cl)c1=O [Compound 127] | H (H shows the control value more than 50%) | L (L shows the control value of 50% or less) | H (H shows the control value more than 50%) | H (H shows the control value more than 50%) | H (H shows the control value more than 50%) | – | – | – | – | – | –
18 | CCn1c(-c2ccc(OC)cc2F)c(-n2cc(Cl)cn2)cc(Cl)c1=O [Compound 149] | H (H shows the control value more than 50%) | L (L shows the control value of 50% or less) | H (H shows the control value more than 50%) | H (H shows the control value more than 50%) | H (H shows the control value more than 50%) | – | – | – | – | – | –
19 | COc1cc(F)c(-c2c(-n3cc(Cl)cn3)cc(Br)c(=O)n2C)c(F)c1 [Compound 178] | H (H shows the control value more than 50%) | H (H shows the control value more than 50%) | H (H shows the control value more than 50%) | H (H shows the control value more than 50%) | H (H shows the control value more than 50%) | – | – | – | – | – | –
20 | O=c1c(Br)cc(-n2cc(Cl)cn2)c(-c2ccc(F)cc2F)n1CC(F)F [Compound 214] | – | – | – | – | – | H (H shows the control value more than 50%) | H (H shows the control value more than 50%) | L (L shows the control value of 50% or less) | H (H shows the control value more than 50%) | H (H shows the control value more than 50%) | –
21 | CCn1c(-c2c(F)cc(F)cc2F)c(-n2cccc2)cc(Cl)c1=O [Compound 132] | H (H shows the control value more than 50%) | H (H shows the control value more than 50%) | H (H shows the control value more than 50%) | H (H shows the control value more than 50%) | H (H shows the control value more than 50%) | – | – | – | – | – | –
